# Experimental data: the supplement of paper PMC8728848
# Some of the results follow.
# B1: Cp ZmpB (Clostridium perfringens), Q0TR08 (protein)
# chain: MNKRKIAAIILATMITNLSATTIDVLAQELNTKNNSKVEVSHDDESHQARVSKFDLYNSDKLDAYNQEFQVSRSNIKSINNNGGKYNSSTIDKAIDGNLETHWETGKPNDANFTNEVVVTFNEITNIDRIVYSARRDSARGKGFAKEFEIYASLKDEGDDFNLVSSGEYTESTRDLVEIKFNPTDFKRLKFKFKKADQNWASAAEFMFYKEDKLNEKFNGLFTDSSMNKVSEEFNTLEKLNAFENELKDHPIYDLYKEGLNNARAILTETSENPTKATLGQITYNLNDDYNNQYRMPYKNIKAIKNNGRHYAAQNIEKAIDNDVNTYWETGTLNSSSFNNEVEVEFNDLVTLDRIVYGSRQSDLKGFAEEVYIYASRTSKGDTYKLVATGAHEATKGLVEAKFEPTEFKRVKFKFKKSKQNSATLNELMFYKPDEVYSSIPKLFTDGTMSELSEEFNSLEKINAFKEKAKNHPLYNDFNETIELAESLISNPRKEDVLELEMRGDSISEAKKRKVWNFQDWQITGLSARAGDKITVYVDVAEGDPTPTLLYKQSLTQHGGATSFQLKPGKNEITIPEINYESNGIPKDVIQGGDLFFTNYKSDSQKRAPKVRIEGASKYPVFILGKSDENEVMKELEAYVEKIKAEPKTTPNIFAVSSNKSLEFVQATYALDWYKKNNKTPKYTAEQWDQYIADAMGFWGFDNSKDVNSDFNFRIMPMVKNLSGGAFMNAGNGVIGIRPGNQDAILAANKGWGVAHELGHNFDTGGRTIVEVTNNMMPLFFESKYKTKTRITDQNIWENNTYPKVGLDDYSNNELYNKADSTHLAQLAPLWQLYLYDNTFYGKFERQFRERDFGNKNREDIYKSWVVAASDAMELDLTEFFARHGIRVDDKVKEDLAKYPKPDKKIYYLNDLAMNYKGDGFTENAKVSVSTSGSNGNIKLSFSVDDENKDNILGYEIRRDGKYVGFTSNDSFVDTKSNLDEDGVYVVTPYDRKLNTLNPIEVNALQPTLSVNPVITLALGEEFNEEEYIVAKDIKGNSLSESVKVKSSNVNTSKVGEYEVLYSLEDSKGNEYTKTSKVNVVSRKEYMSDLTPKQSSNGWGTVRKDKSISGGVIGLTRDGDFVDYNKGLGLHSNAEYVYDLEGKDYDYFESYVGVDKAMSSRPASSVIFKVLVDGEEKFNSGVMRSTTPQKYVKVDVKNAKELKLIVNDAGDGDSSDHASFGDAKLATLSSKPIIKGENLAYSMDEKVDLMKGITATDIEDGNITSKVQIKSSDFVEGKSGIFTVVYSVTDSDGLTSECSRTIAVTDKETQLSDLNWKSATIGSGSVRKDRAVSGNQIRLLNEDNSVETFAKGIGTHSYSEIVYNSEGYDIFDTWVGIDRHVADKKVSSVKFKVYVDGELKAETDVMRIDTPKKRLVVDVRNSKEIKLVVDVADNGNNWDHADWADAKFRNLAEYDASELNKAIEEAKKLDLNNYTEESSEALKNAISKGEEALLSKDKETINSALEELNKEMNSLVKVDLNAVINIPDKYLLKSIQNQLNKTGDITLGDMYSLTTLTLSGVEDLTGLENAKNLETLNMDYNEVKDLRPLSKLKKLNTLNAQEQFIAAGELKPSNGKVIGDSKVYNREGKNVAKTIRVVDKNGNTILEQDAKDEFTINTKDLSSGLYGVHVLFEDEGFSGVMFYLFNV
# Columns and labels:
# Assay in all cases: glycan array binding signal (z-score within array); higher = stronger binding
# Conditions in all cases: glycan notation: IUPAC condensed, linker removed
# [1] = biological target: Gal(b1-4)GalNAc(b1-3)[Fuc(a1-2)]Gal(b1-4)GlcNAc
# Outline: (§1)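 Glycan array data were curated from 3228 arrays in the Consortium for Functional Glycomics database and kept only where the protein sequence was available. Glycan names were converted to IUPAC-condensed notation, and columns mapping to the same glycan were averaged. The binding signal is a within-array Z-score, averaged across arrays of the same protein sequence at different concentrations or buffers and across linkers. Negative Z-scores can be read as non-binding.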
# Gal(b1-4)Glc = biological target: Gal(b1-4)Glc
# Outline: as §1
# Gal(b1-4)Glc6S = biological target: Gal(b1-4)Glc6S
# Outline: as §1
# Gal(b1-4)GlcNAc = biological target: Gal(b1-4)GlcNAc
# Outline: as §1
# [2] = biological target: Gal(b1-4)GlcNAc(a1-6)Gal(b1-4)GlcNAc
# Outline: as §1
# Gal(b1-4)GlcNAc(b1-2)Man = biological target: Gal(b1-4)GlcNAc(b1-2)Man
# Outline: as §1
# [3] = biological target: Gal(b1-4)GlcNAc(b1-2)Man(a1-3)Man(b1-4)GlcNAc(b1-4)GlcNAc
# Outline: as §1
# [4] = biological target: Gal(b1-4)GlcNAc(b1-2)Man(a1-3)[Gal(b1-4)GlcNAc(b1-2)Man(a1-6)]Man(b1-4)GlcNAc(b1-4)GlcNAc
# Outline: as §1
# [5] = biological target: Gal(b1-4)GlcNAc(b1-2)Man(a1-3)[Gal(b1-4)GlcNAc(b1-2)Man(a1-6)]Man(b1-4)GlcNAc(b1-4)[Fuc(a1-6)]GlcNAc
# Outline: as §1
# [6] = biological target: Gal(b1-4)GlcNAc(b1-2)Man(a1-3)[Gal(b1-4)GlcNAc(b1-2)Man(a1-6)][Gal(b1-4)GlcNAc(b1-4)]Man(b1-4)GlcNAc(b1-4)[Fuc(a1-6)]GlcNAc
# Outline: as §1
# [7] = biological target: Gal(b1-4)GlcNAc(b1-2)Man(a1-3)[Gal(b1-4)GlcNAc(b1-2)Man(a1-6)][GlcNAc(b1-4)]Man(b1-4)GlcNAc(b1-4)[Fuc(a1-6)]GlcNAc
# Outline: as §1
# [8] = biological target: Gal(b1-4)GlcNAc(b1-2)Man(a1-3)[GlcNAc(b1-2)Man(a1-6)]Man(b1-4)GlcNAc(b1-4)GlcNAc
# Outline: as §1
# [9] = biological target: Gal(b1-4)GlcNAc(b1-2)Man(a1-3)[GlcNAc(b1-4)][Gal(b1-4)GlcNAc(b1-2)Man(a1-6)]Man(b1-4)GlcNAc(b1-4)GlcNAc
# Outline: as §1
# [10] = biological target: Gal(b1-4)GlcNAc(b1-2)Man(a1-3)[Man(a1-6)]Man(b1-4)GlcNAc(b1-4)GlcNAc
# Outline: as §1
# [11] = biological target: Gal(b1-4)GlcNAc(b1-2)Man(a1-6)Man(b1-4)GlcNAc(b1-4)GlcNAc
# Outline: as §1
# [12] = biological target: Gal(b1-4)GlcNAc(b1-2)Man(a1-6)[GlcNAc(b1-2)Man(a1-3)]Man(b1-4)GlcNAc(b1-4)GlcNAc
# Outline: as §1
# [13] = biological target: Gal(b1-4)GlcNAc(b1-2)Man(a1-6)[Man(a1-3)]Man(b1-4)GlcNAc(b1-4)GlcNAc
# Outline: as §1
# [14] = biological target: Gal(b1-4)GlcNAc(b1-2)[Gal(b1-4)GlcNAc(b1-4)]Man(a1-3)[Gal(b1-4)GlcNAc(b1-2)Man(a1-6)]Man(b1-4)GlcNAc(b1-4)GlcNAc
# Outline: as §1
# [15] = biological target: Gal(b1-4)GlcNAc(b1-2)[Gal(b1-4)GlcNAc(b1-4)]Man(a1-3)[Gal(b1-4)GlcNAc(b1-2)[Gal(b1-4)GlcNAc(b1-6)]Man(a1-6)]Man(b1-4)GlcNAc(b1-4)GlcNAc
# Outline: as §1
# [16] = biological target: Gal(b1-4)GlcNAc(b1-2)[Gal(b1-4)GlcNAc(b1-4)]Man(a1-3)[GlcNAc(b1-4)][Gal(b1-4)GlcNAc(b1-2)Man(a1-6)]Man(b1-4)GlcNAc(b1-4)GlcNAc
# Outline: as §1
# [17] = biological target: Gal(b1-4)GlcNAc(b1-2)[Gal(b1-4)GlcNAc(b1-4)]Man(a1-3)[GlcNAc(b1-4)][Gal(b1-4)GlcNAc(b1-2)[Gal(b1-4)GlcNAc(b1-6)]Man(a1-6)]Man(b1-4)GlcNAc(b1-4)GlcNAc
# Outline: as §1
# [18] = biological target: Gal(b1-4)GlcNAc(b1-2)[Gal(b1-4)GlcNAc(b1-6)]Man(a1-6)[Gal(b1-4)GlcNAc(b1-2)Man(a1-3)]Man(b1-4)GlcNAc(b1-4)GlcNAc
# Outline: as §1
# [19] = biological target: Gal(b1-4)GlcNAc(b1-2)[Gal(b1-4)GlcNAc(b1-6)]Man(a1-6)[Gal(b1-4)GlcNAc(b1-2)Man(a1-3)]Man(b1-4)GlcNAc(b1-4)[Fuc(a1-6)]GlcNAc
# Outline: as §1
# [20] = biological target: Gal(b1-4)GlcNAc(b1-2)[Gal(b1-4)GlcNAc(b1-6)]Man(a1-6)[GlcNAc(b1-4)][Gal(b1-4)GlcNAc(b1-2)Man(a1-3)]Man(b1-4)GlcNAc(b1-4)GlcNAc
# Outline: as §1
# [21] = biological target: Gal(b1-4)GlcNAc(b1-2)[Gal(b1-4)GlcNAc(b1-6)]Man(a1-6)[GlcNAc(b1-4)][Gal(b1-4)GlcNAc(b1-2)[Gal(b1-4)GlcNAc(b1-4)]Man(a1-3)]Man(b1-4)GlcNAc(b1-4)[Fuc(a1-6)]GlcNAc
# Outline: as §1
# [22] = biological target: Gal(b1-4)GlcNAc(b1-3)Gal(b1-3)GalNAc
# Outline: as §1
# [23] = biological target: Gal(b1-4)GlcNAc(b1-3)Gal(b1-3)GlcNAc
# Outline: as §1
# [24] = biological target: Gal(b1-4)GlcNAc(b1-3)Gal(b1-4)Glc
# Outline: as §1
# [25] = biological target: Gal(b1-4)GlcNAc(b1-3)Gal(b1-4)GlcNAc
# Outline: as §1
# [26] = biological target: Gal(b1-4)GlcNAc(b1-3)Gal(b1-4)GlcNAc(b1-2)Man(a1-3)[Gal(b1-4)GlcNAc(b1-3)Gal(b1-4)GlcNAc(b1-2)Man(a1-6)]Man(b1-4)GlcNAc(b1-4)GlcNAc
# Outline: as §1
binder,measurement,setting,value
B1,glycan array binding signal (z-score),[1],0.022
same,glycan array binding signal (z-score),Gal(b1-4)Glc,-0.296
same,glycan array binding signal (z-score),Gal(b1-4)Glc6S,0.099
same,glycan array binding signal (z-score),Gal(b1-4)GlcNAc,-0.328
same,glycan array binding signal (z-score),[2],-0.191
same,glycan array binding signal (z-score),Gal(b1-4)GlcNAc(b1-2)Man,0.161
same,glycan array binding signal (z-score),[3],0.279
same,glycan array binding signal (z-score),[4],0.038
same,glycan array binding signal (z-score),[5],-0.045
same,glycan array binding signal (z-score),[6],-0.446
same,glycan array binding signal (z-score),[7],-0.407
same,glycan array binding signal (z-score),[8],-0.22
same,glycan array binding signal (z-score),[9],0.434
same,glycan array binding signal (z-score),[10],-0.033
same,glycan array binding signal (z-score),[11],0.106
same,glycan array binding signal (z-score),[12],-0.315
same,glycan array binding signal (z-score),[13],0.035
same,glycan array binding signal (z-score),[14],-0.164
same,glycan array binding signal (z-score),[15],-0.21
same,glycan array binding signal (z-score),[16],0.051
same,glycan array binding signal (z-score),[17],-0.025
same,glycan array binding signal (z-score),[18],-0.34
same,glycan array binding signal (z-score),[19],0.112
same,glycan array binding signal (z-score),[20],-0.114
same,glycan array binding signal (z-score),[21],-0.088
same,glycan array binding signal (z-score),[22],-0.341
same,glycan array binding signal (z-score),[23],1.39
same,glycan array binding signal (z-score),[24],-0.317
same,glycan array binding signal (z-score),[25],0.094
same,glycan array binding signal (z-score),[26],-0.213
